Reference: the supplement of paper PMC12217912
Some of the results follow. Sequences were assembled here from the parent chain. Inactive controls read about 0.05.

B1: TEV protease; numbered along this chain (parent)
chain: MGESLFKGPRDYNPISSSICHLTNESDGHTTSLYGIGFGPFIITNKHLFRRNNGTLVVQSLHGVFKVKDTTTLQQHLVDGRDMIIIRMPKDFPPFPQKLKFREPQREERICLVTTNFQTKSMSSMVSDTSCTFPSGDGIFWKHWIQTKDGQCGSPLVSTRDGFIVGIHSASNFTNTNNYFTSVPKNFMELLTNQEAQQWVSGWRLNADSVLWGGHKVFMVKPEEPFQPVKEATQL

Variants of: B1
Assay: raw area under fraction-flipped curve 0-4 h after induction (AUC4h, not background-subtracted), DNA-recorder readout of cleavage of the substrate (dimensionless); higher = more cleavage of the substrate by the protease variant
Settings: temperature: 34 °C; time window: 0-4 h after rhamnose induction
Procedure: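 In vivo DNA recorder in E. coli TOP10(DE3) ΔrhaA at 34 °C. Each TEVp single-site mutant (parent TEVp 0) is paired with a single-site variant of the 7-mer TEVs (canonical ENLYFQ|S). The substrate sits between flexible linkers in a Bxb1-sfGFP-TEVs-SsrA fusion, so cleavage stabilises Bxb1 and speeds flipping of a recombination array, read by NGS. The value is the raw area under the fraction-flipped curve over 0-4 h after rhamnose induction (AUC4h), with ≥20 reads per time point. It is not background-subtracted; inactive controls average about 0.047.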
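Further: Bxb1 expression induced with 0.2% (w/v) L-rhamnose at OD600 near 0.5, cultures sampled hourly, flipped fraction per protease–substrate barcode pair counted by paired-end Illumina sequencing.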

| Variant | area with substrate ENLYFAS | area with substrate ENLYFCS | area with substrate ENLYFDS | area with substrate ENLYFES | area with substrate ENLYFFS | area with substrate ENLYFGS | area with substrate ENLYFHS | area with substrate ENLYFIS | area with substrate ENLYFLS | area with substrate ENLYFMS | area with substrate ENLYFNS | area with substrate ENLYFPS | area with substrate ENLYFRS | area with substrate ENLYFSS | area with substrate ENLYFTS | area with substrate ENLYFVS | area with substrate ENLYFWS | area with substrate ENLYFYS | area with substrate ENLYFKS |
| --- | --- | --- | --- | --- | --- | --- | --- | --- | --- | --- | --- | --- | --- | --- | --- | --- | --- | --- | --- |
| MGESLFKGPRDYNPISSSICHLTNESDGHTTSLYGIGFGPFIITNKHLFRRNNGTLVVQSLHGVFKVKDTTTLQQHLVDGRDMIIIRMPKDFPPFPQKLKFREPQREERICLVTTNFQTKSMSSMVSDTSCTFPSGDGIFWKHWIQTKDGQCGSPLVSTRDGFIVGFHSASNFTNTNNYFTSVPKNFMELLTNQEAQQWVSGWRLNADSVLWGGHKVFMVKPEEPFQPVKEATQL [I167F] | 0.0562 | 0.0571 | 0.0479 | 0.0523 | 0.0691 | 0.0678 | 0.0652 | 0.0596 | 0.0558 | 0.0627 | 0.0437 | 0.0513 | 0.0609 | 0.0755 | 0.0673 | 0.0578 | 0.0516 | 0.0535 |  |
| MGESLFKGPRDYNPISSSICHLTNESDGHTTSLYGIGFGPFIITNKHLFRRNNGTLVVQSLHGVFKVKDTTTLQQHLVDGRDMIIIRMPKDFPPFPQKLKFREPQREERICLVTTNFQTKSMSSMVSDTSCTFPSGDGIFWKHWIQTKDGQCGSPLVSTRDGFEVGIHSASNFTNTNNYFTSVPKNFMELLTNQEAQQWVSGWRLNADSVLWGGHKVFMVKPEEPFQPVKEATQL [I164E] | 0.0581 | 0.0647 |  | 0.0151 | 0.048 | 0.0382 | 0.0492 | 0.0547 | 0.0643 | 0.0645 |  |  | 0.0444 | 0.0236 | 0.0575 | 0.0414 |  |  | 0.0499 |
| MGESLFKGPRDYNPISSSICHLTNESDGHTTSLYGIGFGPFIITNKHLFRRNNGTLVVQSLHGVFKVKDTTTLQQHLVDGRDMIIIRMPKDFPPFPQKLKFREPQREERICLVTTNFQTKSMSSMVSDTSCTFPSGDGIFWKHWIQTKDGQCGSPLVSTRDGFHVGIHSASNFTNTNNYFTSVPKNFMELLTNQEAQQWVSGWRLNADSVLWGGHKVFMVKPEEPFQPVKEATQL [I164H] | 0.0587 | 0.0505 |  |  | 0.0532 | 0.0661 | 0.0563 | 0.043 |  |  | 0.057 |  |  | 0.0575 | 0.0403 | 0.0468 | 0.0532 | 0.0321 | 0.0624 |
| MGESLFKGPRDYNPISSSICHLTNESDGHTTSLYGIGFGPFIITNKHLFRRNNGTLVVQSLHGVFKVKDTTTLQQHLVDGRDMIIIRMPKDFPPFPQKLKFREPQREERICLVTTNFQTKSMSSMVSDTSCTFPSGDGIFWKHWIQTKDGQCGSPLVSTRDGFLVGIHSASNFTNTNNYFTSVPKNFMELLTNQEAQQWVSGWRLNADSVLWGGHKVFMVKPEEPFQPVKEATQL [I164L] | 0.0598 | 0.0628 |  | 0.0623 | 0.0628 | 0.0536 | 0.0396 | 0.0575 | 0.0566 | 0.0583 | 0.0476 | 0.0435 | 0.0606 | 0.0525 | 0.0702 | 0.0588 |  | 0.0634 | 0.0571 |
| MGESLFKGPRDYNPISSSICHLTNESDGHTTSLYGIGFGPFIITNKHLFRRNNGTLVVQSLHGVFKVKDTTTLQQHLVDGRDMIIIRMPKDFPPFPQKLKFREPQREERICLVTTNFQTKSMSSMVSDTSCTFPSGDGIFWKHWIQTKDGQCGSPLVSTRDHFIVGIHSASNFTNTNNYFTSVPKNFMELLTNQEAQQWVSGWRLNADSVLWGGHKVFMVKPEEPFQPVKEATQL [G162H] | 0.0662 |  | 0.0552 | 0.0662 | 0.0677 | 0.0601 |  | 0.0481 |  | 0.06 | 0.0787 | 0.0581 |  |  | 0.0552 | 0.0561 | 0.0573 |  | 0.0695 |
| MGESLFKGPRDYNPISSSICHLTNESDGHTTSLYGIGFGPFIITNKHLFRRNNGTLVVQSLHGVFKVKDTTTLQQHLVDGRDMIIIRMPKDFPPFPQKLKFREPQREERICLVTTNFQTKSMSSMVSDTSCTFPSGDGIFWKHWIQTKDGQCGSPLVSTRDGFIVGIHSASNFTNTNNYFTSCPKNFMELLTNQEAQQWVSGWRLNADSVLWGGHKVFMVKPEEPFQPVKEATQL [V183C] | 0.0945 | 0.0591 | 0.0734 | 0.0626 | 0.064 | 0.0678 | 0.0725 | 0.0542 | 0.0551 | 0.0775 | 0.0654 | 0.0591 | 0.0374 | 0.063 | 0.0721 | 0.0613 |  |  |  |
| MGESLFKGPRDYNPISSSICHLTNESDGHTTSLYGIGFGPFIITNKHLFRRNNGTLVVQSLHGVFKVKDTTTLQQHLVDGRDMIIIRMPKDFPPFPQKLKFREPQREERICLVTTNFQTKSMSSMVSDTSCTFPSGDGIFWKHWIQTKDGQCGSPLNSTRDGFIVGIHSASNFTNTNNYFTSVPKNFMELLTNQEAQQWVSGWRLNADSVLWGGHKVFMVKPEEPFQPVKEATQL [V157N] | 0.0451 | 0.0524 |  | 0.0567 | 0.0599 |  | 0.0423 | 0.0526 | 0.0535 | 0.049 | 0.0482 | 0.0462 | 0.0635 | 0.0478 | 0.0418 | 0.0485 | 0.048 |  | 0.0548 |
| MGESLFKGPRDYNPISSSICHLTNESDGHTTSLYGIGFGPFIITNKHLFRRNNGTLVVQSLHGVFKVKDTTTLQQHLVDGRDMIIIRMPKDFPPFPQKLKFREPQREERICLVTTNFQTKSMSSMVSDTSCTFPSGDGIFWKHWIQTKDGQCGSPLRSTRDGFIVGIHSASNFTNTNNYFTSVPKNFMELLTNQEAQQWVSGWRLNADSVLWGGHKVFMVKPEEPFQPVKEATQL [V157R] | 0.049 | 0.0565 | 0.0723 | 0.0552 | 0.0668 | 0.0723 | 0.0438 | 0.0594 |  | 0.0612 | 0.0346 | 0.06 | 0.0552 | 0.0535 | 0.0548 | 0.0495 | 0.0578 |  | 0.0593 |
